In the supplement of paper PMC11417369:
± gives the standard deviation of the averaged measurements. The list shows a part of the results.

What follows are sequences tested on PfAP2-G AP2 domain (GST-tagged) (assay: gcPBM binding intensity (ln(normalized median fluorescence intensity)); higher = stronger DNA binding).
Outline: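 Binding intensity values are the highest Masliner-normalised natural-log median intensity among replicate spots of either probe orientation. The binding step lasted 1 h in 1× PBS with 1% milk, 0.2 mg/ml BSA, 0.5% salmon testes DNA and 0.03% Triton X-100, using GST-tagged P. falciparum DNA-binding domains expressed in E. coli on an Agilent 4 × 180k array of primer-extended double-stranded 36-bp intergenic genomic probes plus negative controls. Alexa488 anti-GST antibody and a 488 nm scan detected bound protein.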

Sequence | gcPBM binding intensity (ln)
AAAAAAAATTCATATTGTACTTTTAAATTAAAGAAA [XGTACX_site4521] | 11.3 ± 0.83
TTAAAATTTTTCAAAAGTACATAAATAATATATATT [XGTACX_site4694] | 11.2 ± 0.8
AATATATTATATATATGTACATAATGTGTAATACCT [XGTACX_site2845] | 11 ± 0.55
AGTGAATATCTAAAATGTACATAAATAAATAAATAA [XGTACX_site8293] | 11.1 ± 0.7
CGTTATATCAAAGGAGTGCATTATGAATACGTTTTA [GTGCAC_site9837] | 10.3 ± 0.23
TTTCACTACACAAATACACACAAAAATATATGTGCA [CACACA_site2632] | 10.1 ± 0.13
TTCTATTTTATATGTGCACACATATACACCCACAAA [CACACA_site1130] | 10.9 ± 0.54
TTCTTTTTGAAACACACACACACAAGAAAATATATA [CACACA_site3110] | 10.3 ± 0.33
AAAAAAAAAAAACATACACACATACATACAGATATA [CACACA_site4681] | 9.94 ± 0.13
ATTTTTTAAATTTAAACACACATTTTGTATATGTTT [CACACA_site1654] | 9.94 ± 0.057
GATATATAATATAATACACACATTTTATGAATGTAA [CACACA_site24] | 9.82 ± 0.099
TCTACTATTATATATTGTACAAATGATACTTATATT [XGTACX_site1819] | 10.9 ± 0.61
AAATTTTTTGTTCAATGTACTTTTTTATTATATTTT [XGTACX_site5298] | 11.3 ± 0.73
ATATATAATTAATAAAGTACATTAATTATTTCTTTT [XGTACX_site3034] | 11.1 ± 0.61
AAAAAAATAACAAAAGTGCATTTTTATGAGTTATCT | 9.775 ± 0.007
TTTCCTTACCCTTTCCTGGTGTAGAAATTATACTCT [TGCATGCA_negctrl_site116] | 10 ± 0.13
TATAATTAAAATTTGTGTACGTATGACAAAACATTT [XGTACX_site7072] | 11.6 ± 0.91
AGATACAAGCACTATAGTACACATACTAAAAATATA [XGTACX_site5849] | 11.2 ± 0.8
AAATGAAAAATAAGGAAAAAAAAAAAAAAAAAAAAA [CACACA_negctrl_site1715] | 9.64 ± 0.45
TAAAATATTTCAAAGGTGCAATGATAATTTAAGACG [GTGCAC_site9609] | 10.07 ± 0.099
ATATTGACAGGAAAAATTTTCTTTGAATCTTTAAAA [CACACA_negctrl_site1191] | 9.755 ± 0.035
TATGTTATATTGGACACACACAATAAACATTATGTA [CACACA_site1657] | 10.7 ± 0.59
ATATATATATATAAGCGTACGCGTAGTTAAATTAAT [XGTACX_site7693] | 11.6 ± 0.77

Sequence | gcPBM binding intensity (ln)
ACAAAAAAAATAAGCACACATATATATATATATATA [CACACA_site816] | 10.1 ± 0.34
TACATGATAAGATGTAGTACATAAAAGAATAAATTA [XGTACX_site787] | 11.5 ± 1
TTTTCAAAAATATATACACACATGCATATTACGGTG [CACACA_site775] | 10.05 ± 0.014
TATTCAATACTTAATGCACACAATAAAAAAAATATG [CACACA_site2467] | 10.4 ± 0.45
ACGATAACATTTTTACGTACATATATTTTCACGGAG [XGTACX_site8764] | 11.4 ± 0.88
TTATTCATTTCGAAAAGTACAAATTCTGTTTATTAT [XGTACX_site6892] | 11.1 ± 0.71
GAAATAATTTTTATTTGTACACACATACATATATAT [XGTACX_site1862] | 11 ± 0.6
AAATTTTATAAAGGAACACACATTTTTTTTTTTTCT [CACACA_site2368] | 9.86 ± 0.085
CCACTAATTATGTGCACACAAATTAAAGGTCTACAA [CACACA_site4259] | 10.7 ± 0.45
AAAAAAAAAAAATACGTGCACTATGATATATTATAT | 10.4 ± 0.4
TTCACTCCATATTATACACACACACTAATGAAAAAA [CACACA_site8991] | 10.3 ± 0.38
AAAAAAAAAAAAAGTACACACATACATATAAATATA [CACACA_site8533] | 11.5 ± 0.86
TTTTGTCGGAAATCGGATAAGAAGAAAAAAAATAAT [GTGCAC_negctrl_site594] | 10.2 ± 0.26
ATAATATTTATAAATTGTACTAATGTTCAATAATTA [XGTACX_site7284] | 10.9 ± 0.77
ATAATAAAAATAAAATGTACATACATAAATATATAT [XGTACX_site6228] | 11.1 ± 0.53
TATCGTTTTATTCGGTTGCACCAAAAAAATAAAATA [GTGCAC_site9408] | 10.3 ± 0.45
AAATATATATAAGCGTGTACACATTCTGAGTGTTGT [XGTACX_site1088] | 11.7 ± 1.1
ATATATATATAATAAGTGCAAAAATAATGACCTATA | 10.3 ± 0.23
AGCTATAATAAATATACACACATATATAAATATGTA [CACACA_site6583] | 9.715 ± 0.021
AAAAAAAATTAAAATAAAATATAAATATAAAATATA [GTGCAC_negctrl_site714] | 9.395 ± 0.078
TATATATTTTTATGCACACACAAAGAAAATTTTCCT [CACACA_site2863] | 10.3 ± 0.18
AATTTATATTAAAATTGTACATTTCTTCTATAATAC [XGTACX_site8639] | 10.8 ± 0.34
AATATATTTAATGAGTGTACATTATTTATTATTATT [XGTACX_site6889] | 11.2 ± 0.69

Sequence | gcPBM binding intensity (ln)
AAATAAAAAAAATAAAAGCAATCATAATAAAAATCT [CACACA_negctrl_site161] | 9.73 ± 0.13
TGTATGTATTTGTGTAGTACGCATAAGTAATAAAAC [XGTACX_site6704] | 11.5 ± 0.94
TCCCATATATATATATATATATATATATATAATAAT [TGCATGCA_negctrl_site41] | 9.63 ± 0.11
TACCAAAAGAAACACACACACAAAATATATAAATAT [CACACA_site1869] | 10 ± 0.099
ATACTTTTAATATGCACATGCAAATATGAAATATCG [TGCATGCA_site603] | 9.96 ± 0.16
TTTGGCTAGTCAAGTTGTACAAAAAAAAAAAAAAAA [XGTACX_site8382] | 11.2 ± 1.1
ATTTAATTTTCATGATGTACTATAGTTTAATGCACA [XGTACX_site1624] | 10.8 ± 0.4
TAATAATCAAACTATACACACATAAATAGATATATA [CACACA_site6220] | 9.835 ± 0.021
TGTAAATATAAATGTAATAAATATGTAAAAATAAAT [XGTACX_negctrl_site171] | 9.79 ± 0.13
TATTTTCAAAAATATACACACACATAAATATATGTA [CACACA_site8160] | 9.92 ± 0.11
GGTAATAAACAATGAAGTACGTAAAGGTAAAATATT [XGTACX_site2647] | 11.3 ± 0.59
TTATTAGGTATATATGCACACAATACCCAAAACAAC [CACACA_site4221] | 10.6 ± 0.48
TATCATTTTTTTAAAACACACATAATAATATAAATA [CACACA_site2845] | 10 ± 0.16
TAAATTTTATAAATCTGTACATATGAGCAAGAACAT [XGTACX_site7400] | 11.1 ± 0.69
ATTATGCACCAACACACACACACACCCCTAAAAAAT [CACACA_site2568] | 10.5 ± 0.53
CACTTCAAAAAAATATGTACACATATATATATATAT [XGTACX_site3075] | 11.4 ± 0.86
TTATATGTATTTCTTTGTACACATTTTTATATATAT [XGTACX_site1462] | 11.5 ± 0.91
TATATTTGAAATATATGTACTTATAATACAGTTTAA [XGTACX_site8039] | 11.2 ± 0.93
TAAAGAGTTACCATTTGTACTTACGCACACATAAAA [XGTACX_site3145] | 11.2 ± 0.83
TTTTTATGTTATCAAATAAATATAAATATAATTCAT [CACACA_negctrl_site1522] | 9.655 ± 0.064
ATGTATACAAATATATGTACGTATGTTCTCTTCTTT [XGTACX_site7865] | 11.2 ± 0.81
TTCCTTCAAAATTTAAGTAATAAGATAAAAATATAA [CACACA_negctrl_site1696] | 9.645 ± 0.064
CACAGATAAATTAACACACACACACGGATATTTATA [CACACA_site7788] | 10.09 ± 0.078

Sequence | gcPBM binding intensity (ln)
TATTAATACAGACACACACACACACTAATTAAAATA [CACACA_site7967] | 10.2 ± 0.2
ATTTACCCTTGCCATGCACACTTTTTTATAGAAAAT [CACACA_site5857] | 10.4 ± 0.28
AATATATAATTAATTGCACACCTTGTCACGCCAAAA [CACACA_site1174] | 10.2 ± 0.15
TAAATATATAAACACACACACATTAATACAGATATT [CACACA_site5851] | 10.045 ± 0.007
AAAATTATAAAATGGGCACACATGAAGATTGTAGTA [CACACA_site2226] | 10.5 ± 0.27
GAATGAATACGTTTTACACACTTGAATATAATTTCA [CACACA_site989] | 10.2 ± 0.12
ATATATAAATTTAATACACACCCAAAAAAAAAAAAA [CACACA_site7719] | 10.1 ± 0.5
TTATTTATTTTTTCATGTACTTAAATATATTAATGT [XGTACX_site5804] | 11.2 ± 0.69
TGAAAATATTTTATATGTACATATATTATCAATACA [XGTACX_site92] | 11.2 ± 0.61
TAGAATAATCTATAAACACACAAACCCAACAAAAGA [CACACA_site6132] | 10.4 ± 0.39
ATCTATATTTTTATAACACACAATGATGTACATTAC [CACACA_site6633] | 11.2 ± 0.86
TGTGTGGATATATGTATGCACTACCCTTTGGGTCAT [GTGCAC_site9506] | 10.3 ± 0.2
AAATATTAAATGGAAAACAAATATATATATCTTAAT [XGTACX_negctrl_site383] | 9.72 ± 0.13
ATATATTGAACCTATGCATGTAAAATATATGTAATA [TGCATGCA_site644] | 9.805 ± 0.007
AAAAAAGAAATAATCAAATAAATAAAAAAGATGAAT [XGTACX_negctrl_site607] | 9.7 ± 0.16
GTGTGAAGATATAAATGCATTTTTTTATACATTTTC [CACACA_negctrl_site117] | 9.59 ± 0.23
ATATATATATATAGGAGTACATGAAATACTTAAAAA [XGTACX_site8851] | 11.5 ± 0.93
AATATTATATAATAAAGTACATATATATTCATATTT [XGTACX_site7204] | 11 ± 0.69
TGTAAGTATTCTTGAGGTACACATATAAATATAGTA [XGTACX_site3207] | 11.4 ± 0.79
ATTATATATACAACAAGTACAAAAGAAAAATATTAT [XGTACX_site2914] | 11.2 ± 0.52
